This is one part of the list. Further columns of the screen follow, without active or inactive calls. The list favours compounds with an active or inconclusive main result. Potencies come from curve fits of mixed quality, noted in brackets.

What is called IC50 is the concentration at which inhibition is half-maximal.
Tags describe the fitted curve by direction and shape.

In this test the target is Catechol O-methyltransferase (Homo sapiens) (UniProt P21964). The test can be described thus: Confirmatory Screen for Target Class Profiling of Small Molecule Inhibitors of Methyltransferases (AID 1745852).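 Further: inhibitor potency for blocking SAH production.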 Conditions: MTase-Glo luminescence, SAH detection, recombinant enzyme; measured here: COMT inhibition potency.
Chain of UniProt P21964 (P21964 whole entry, looked up): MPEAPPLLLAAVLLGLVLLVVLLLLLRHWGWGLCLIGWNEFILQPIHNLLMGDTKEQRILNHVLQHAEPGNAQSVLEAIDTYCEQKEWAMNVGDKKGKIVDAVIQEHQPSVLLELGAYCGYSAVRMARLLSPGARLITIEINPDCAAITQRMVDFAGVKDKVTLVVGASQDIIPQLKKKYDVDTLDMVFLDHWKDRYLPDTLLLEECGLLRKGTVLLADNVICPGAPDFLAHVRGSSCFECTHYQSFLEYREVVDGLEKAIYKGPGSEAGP
Turning to `CC(O)(CC(=O)O)CC(=O)OCc1ccc(O[C@@H]2O[C@H](CO)[C@@H](O)[C@H](O)[C@H]2O)cc1` (some centres not stated), the IC50 was 6.63 µM [falling, partial curve]. For `C=CC(C)(O)CC/C=C(\C)COC1O[C@H](CO)[C@@H](O)[C@H](O)[C@H]1O` (some centres not stated), the concentration for half-maximal inhibition (IC50) is 3.34 µM [falling, full curve]. On to `C=C1C(O[C@@H]2O[C@H](CO)[C@@H](O)[C@H](O)[C@@H]2O)CC2C(C)(C)C(O)CCC2(C)C1CC/C(C)=C\CO` (some centres not stated), for which the IC50 was 7.44 µM [falling, partial curve].

On to `O=C(O)CCc1cccc(O[C@@H]2O[C@H](CO)[C@@H](O)[C@H](O)[C@H]2O)c1O`, for which the IC50 is 10.6 µM [falling, partial curve]. Regarding `COc1ccc(CCO[C@@H]2O[C@H](CO[C@@H]3OC[C@H](O)[C@H](O)[C@H]3O)[C@@H](O)[C@H](O)[C@H]2O)cc1`, the half-inhibitory concentration (IC50) is 2.64 µM [falling, full curve].

Turning to `O=C(c1ccccc1)c1c(O)cc(O)cc1O[C@@H]1O[C@H](CO)[C@@H](O)[C@H](O)[C@H]1O`, the IC50 was 2.37 µM [falling, full curve].

For the compound `CC1(C)CC[C@]2(C(=O)O[C@@H]3O[C@H](CO)[C@@H](O)[C@H](O)[C@H]3O)CC[C@]3(C)C(=CCC4[C@@]5(C)C[C@@H](O)[C@H](O)[C@@](C)(CO)C5[C@H](O)C[C@]43C)C2[C@@H]1O` (some centres not stated), the IC50 is 1.01 µM [falling, full curve]. As to `CC(=O)OC/C(=C/C(=O)O)CC[C@@H]1C(C=O)=CC[C@@H]2C(C)(C)CCC[C@@]12C`, the IC50 is 9.42 µM [falling, partial curve]. `C=C(C)C(=O)OC1CC2(C)OC(=CC2=O)C(=C)CC2OC(=O)C(COC)C12` (configuration not stated): the IC50 is 0.53 µM [falling, full curve]. In the case of `CC(CCC1C(C(=O)O)=CC(=O)CC1(C)C)O[C@@H]1O[C@H](CO)[C@@H](O)[C@H](O)[C@H]1O` (some centres not stated) it was 2.66 µM [falling, full curve]; in that of `C=C1C(=O)O[C@@H]2C3=C(C)CCC[C@]3(C)CC[C@@]12O`, 3.41 µM [falling, full curve]. Consider `C/C=C(\C)C(=O)O[C@H]1[C@@H](O[C@]2(COC(=O)CC(C)C)O[C@H](COC(=O)C(C)C)[C@@H](OC(C)=O)[C@@H]2O)O[C@H](COC(C)=O)[C@@H](O)[C@@H]1O`, for which the IC50 was 2.54 µM [falling, partial curve]. The result for `C=C1[C@H]2[C@H](O[C@@H]3O[C@H](COC(=O)/C=C/c4cc(OC)c(O)c(OC)c4)[C@@H](O)[C@H](O)[C@H]3O)OC=C(C(=O)O)[C@H]2C[C@@H]1O` reads 3.2 µM [falling, partial curve]. The result for `Cc1ccc(-c2ccc(N)nc2)c2cccnc12` reads 19.2 µM [falling, partial curve]; that for `CN(C)[C@@H]1C(=O)C(C(N)=O)=C(O)[C@@]2(O)C(=O)C3=C(O)c4c(O)ccc(Cl)c4[C@@H](O)[C@H]3C[C@@H]12`, 19.3 µM [falling, partial curve]; that for `C=C1C(=O)O[C@@H]2CC(C)=C([C@@H](C)CCCO)[C@@H](OC(=O)C(C)C)[C@H]12`, 7.48 µM [falling, partial curve]. In the case of `CC(C)(O)C1CC=C(C(=O)OC[C@H]2O[C@@H](Oc3cc(C(=O)O)cc(O)c3O)[C@H](O)[C@@H](O)[C@@H]2O)CC1` (some centres not stated) it was 3.32 µM [falling, full curve]. Regarding `CC1(CO)CC[C@]2(C(=O)O[C@@H]3O[C@H](CO)[C@@H](O)[C@H](O)[C@H]3O)CC[C@]3(C)C(=CCC4[C@@]5(C)C[C@H](O)[C@H](O[C@@H]6OC[C@@H](O)[C@H](O)[C@H]6O)[C@@](C)(CO)C5CC[C@]43C)C2C1` (some centres not stated), the half-maximal inhibitory concentration (IC50) is 4.08 µM [falling, partial curve]. The result for `CC1CCC2(CO)C(C(=O)O)=CCCC2C1(C)CCc1ccoc1` (configuration not stated) reads 0.942 µM [falling, full curve]; that for `C=C(C)[C@H]1C[C@@H](O)C(=C)CC[C@@H](O)C(=C)[C@@H](O)C1`, 6.81 µM [falling, partial curve].

In the case of `C=C(C(=O)O)C1CC(O)C2(C)CCCC(=C)C2C1` (configuration not stated), the IC50 is 19.2 µM [falling, partial curve].

Regarding `C=C[C@](C)(CC/C=C(\C)C(=O)O)O[C@@H]1OC[C@H](O)[C@H](O)[C@H]1O`, the IC50 was 3.34 µM [falling, full curve].

The record behind these values is PubChem BioAssay (NCATS).
